Measured values taken from paper PMC4336329 (PLoS ONE, 2015).
Hit rate of the full screen: of about 310,000 compounds, about 14,000 (4.5%) showed an effect of 50% or more. Effects have a minus sign here. The list shows a part of the results.

Each molecule was assayed against human ether-à-go-go-related gene (hERG) potassium channel (human, UniProt Q12809) (assay: primary screen, population patch clamp on CHO cells stably expressing hERG).
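Also: peak tail current of the secondary pulse compared with the same well before compound.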

Sequence of human ether-à-go-go-related gene (hERG) potassium channel (Q12809 whole entry, looked up): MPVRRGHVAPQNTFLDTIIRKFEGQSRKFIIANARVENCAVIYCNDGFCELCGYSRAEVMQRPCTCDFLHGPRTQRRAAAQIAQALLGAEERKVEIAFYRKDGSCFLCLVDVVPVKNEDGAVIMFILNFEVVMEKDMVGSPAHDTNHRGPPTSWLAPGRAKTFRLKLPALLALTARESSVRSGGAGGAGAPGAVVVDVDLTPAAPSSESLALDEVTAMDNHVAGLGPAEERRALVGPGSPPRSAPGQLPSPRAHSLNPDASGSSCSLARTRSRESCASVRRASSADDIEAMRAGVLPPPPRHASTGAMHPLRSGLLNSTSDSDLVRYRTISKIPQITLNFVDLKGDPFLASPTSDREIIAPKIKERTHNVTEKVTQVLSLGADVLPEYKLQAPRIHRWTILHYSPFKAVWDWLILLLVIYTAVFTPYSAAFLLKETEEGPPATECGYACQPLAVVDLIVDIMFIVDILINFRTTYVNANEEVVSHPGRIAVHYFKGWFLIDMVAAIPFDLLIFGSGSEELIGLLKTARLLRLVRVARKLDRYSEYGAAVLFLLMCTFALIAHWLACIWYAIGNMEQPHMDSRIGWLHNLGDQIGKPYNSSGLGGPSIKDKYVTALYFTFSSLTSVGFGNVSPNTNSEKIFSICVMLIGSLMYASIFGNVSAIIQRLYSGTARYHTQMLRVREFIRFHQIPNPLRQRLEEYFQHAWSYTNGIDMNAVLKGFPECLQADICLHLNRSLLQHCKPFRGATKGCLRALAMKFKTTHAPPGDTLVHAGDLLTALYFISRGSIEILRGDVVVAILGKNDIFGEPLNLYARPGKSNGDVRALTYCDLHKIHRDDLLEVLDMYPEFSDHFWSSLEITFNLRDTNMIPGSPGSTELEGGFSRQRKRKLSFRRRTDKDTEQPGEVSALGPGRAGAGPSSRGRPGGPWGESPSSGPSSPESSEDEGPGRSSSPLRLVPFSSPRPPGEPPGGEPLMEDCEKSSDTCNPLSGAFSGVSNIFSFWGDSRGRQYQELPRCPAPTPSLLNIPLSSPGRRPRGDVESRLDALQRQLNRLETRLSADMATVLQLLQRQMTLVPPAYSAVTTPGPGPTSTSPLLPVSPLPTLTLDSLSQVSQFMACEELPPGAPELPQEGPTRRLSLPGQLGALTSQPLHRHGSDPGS

| SMILES | hERG current change (%, negative = inhibition) at 10uM [%] |
| --- | --- |
| O=C(O)CSc1nc2ccccc2c(=O)[nH]1 | 3.54 |
| CCC(C)(C)NC(=O)C(c1cccc(OC)c1)N(C(=O)CNC(=O)c1cccs1)c1cccnc1 (centres unmarked) | 12.7 |
| CCN(CC)S(=O)(=O)c1cc(NC(=O)c2cc([N+](=O)[O-])ccc2N2CCOCC2)ccc1C | -20.5 |
| Cc1ccc(C(=O)OCC(=O)Nc2ccc3c(c2)OCO3)o1 | 16.5 |
| Cc1ccc(CN2CC(C(=O)O)CC2=O)cc1 (centres unmarked) | 6.55 |
| CCOC(=O)C1C(=O)C=C(c2ccc(NS(C)(=O)=O)cc2)CC1c1ccco1 (centres unmarked) | -80.3 |
| O=S(=O)(Nc1cc(S(=O)(=O)N2CCOCC2)ccc1N1CCOCC1)c1ccc2c(c1)OCCO2 | 7.99 |
| Nc1nc(Nc2cccc(Cl)c2)nc(NCCO)c1[N+](=O)[O-] | -37.6 |
| O=c1c2ccccc2nc(COc2ccccc2)n1/N=C/c1cc([N+](=O)[O-])ccc1O | 0.659 |
| c1ccc(Cn2nnc3c(N4CCOCC4)ncnc32)cc1 | 2.85 |
| Cc1ccc([N+](=O)[O-])cc1-c1[nH]c(-c2ccc(O)c(O)c2)nc1-c1ccccc1 | -1.31 |
| Cc1cc(CSc2ccccc2)ccc1NC(=O)c1ccc(Br)cc1 | -3.72 |
| Cc1ccc(-c2nnn(CC(=O)N3CCCCC3)n2)cc1 | 3.07 |
| O=C(Nc1ccccc1N1CCN(C(=O)c2ccccc2)CC1)c1ccccc1Cl | -78.8 |
| O=C(CCC(=O)N1CCOCC1)Nc1ccc(Cl)c(Cl)c1 | 0.392 |
| CCOc1ccc(NC(=S)N(CCCN2CCCC2)Cc2cccn2Cc2ccc(Cl)cc2)cc1 | -58.4 |
| O=C(Nn1cnnc1)c1ccc([N+](=O)[O-])cc1 | 25.9 |
| COc1ccccc1CNC(=O)C(=O)Nc1ccc(C(=O)N2CCC(C)CC2)cc1 | -7.35 |
| Cc1onc(-c2c(Cl)cccc2Cl)c1COC(=O)c1ccc([N+](=O)[O-])cc1 | 8.05 |
| COc1ccc(-c2nc(CS(=O)CC(=O)NCCc3ccc(C)cc3)c(C)o2)cc1OC (centres unmarked) | -3.12 |
| Cc1cc(N(CC(=O)NC(C)C)S(C)(=O)=O)ccc1Br | 16.4 |
| CC(C)C(=O)NC(=S)/C=C1/N(C)c2ccccc2C1(C)C | -1.42 |
| COc1ccc(NC(=O)Cc2coc3ccc4ccccc4c23)cc1S(=O)(=O)N1CCOCC1 | -14.8 |

| SMILES | hERG current change (%, negative = inhibition) at 10uM [%] |
| --- | --- |
| O=C(NCc1cccnc1)C(=O)Nc1nc2ccccc2s1 | 3.9 |
| Cc1ccc(C(C)NC(=O)COC(=O)C2=COCCO2)cc1C (centres unmarked) | -10.5 |
| CC(C)Oc1ccccc1C1Nc2ccccc2C(=O)N1c1ccc2c(c1)OCCO2 (centres unmarked) | 3.43 |
| CC1Cc2ccccc2N1C(=O)CSc1nnnn1C(C)C (centres unmarked) | -2.17 |
| Cc1cc(C)nc(SCCn2c(N3CC(C)OC(C)C3)nc3c2c(=O)n(C)c(=O)n3C)n1 (centres unmarked) | 6.38 |
| COc1cc(/C=N/NC(=O)c2cc3ccccc3[nH]2)ccc1O | 6.64 |
| CCOc1ccc(CN(C)C(=O)CNC(=O)C2CCCCC2)cc1 | 16.8 |
| O=C(N/N=C/c1cccn1-c1ccccc1)c1ccncc1 | 26.2 |
| CCn1c(CN2c3ccccc3Sc3ccccc32)n[nH]c1=S | 20.8 |
| O=C(O)c1cccc(-c2nc3ccccc3[nH]2)c1 | 0.57 |
| COc1ccc(CNC(=O)c2cccnc2Sc2ccc(Cl)cc2)cc1 | -1.59 |
| CCOc1ccc(-c2nc(N)ncc2Oc2ccccc2Br)c(O)c1 | 10.3 |
| COc1ccc(OCCCSc2ncccn2)cc1 | -6.26 |
| CCc1ccccc1Cn1c(=O)oc2cccnc21 | 8.11 |
| Cc1ccc2c(C)c(C(=O)NCc3ccc(S(N)(=O)=O)cc3)oc2c1 | 18.5 |
| Nn1c(SCc2cccc3ccccc23)nnc1-c1ccco1 | -11.4 |
| O=C(/C=C/c1ccco1)N1CCN(c2ccccc2)CC1 | -1.71 |
| CC(C)C1Nc2ccc(C(=O)NC3CCCCC3)cc2NC1=O (centres unmarked) | 11.6 |
| COc1cccc(NC(=O)C(Cc2ccccc2)NC(=O)C2CCC(C)CC2)c1 (centres unmarked) | -11.8 |
| CC1CN(C(=O)c2ccc(Br)c(S(=O)(=O)N3CCOCC3)c2)CC(C)O1 (centres unmarked) | 1.59 |
| COc1ccc(CN(C)C(=O)CCCNC(=O)c2ccc(Cl)cc2)cc1 | -26.6 |
| CCCCN(N=Nc1nonc1OC)c1nonc1OC | -3.98 |
| S=c1[nH]nc(Cc2ccccc2)n1-c1ccccc1 | 22.9 |

| SMILES | hERG current change (%, negative = inhibition) at 10uM [%] |
| --- | --- |
| CCOC(=O)COc1ccc(S(=O)(=O)NCCC2=CCCCC2)cc1 | -4.87 |
| Cc1cc(NC(=O)CC(CN(C)S(=O)(=O)c2ccccc2)c2ccccc2)no1 (centres unmarked) | -35 |
| CC(=O)N1CCc2cc(S(=O)(=O)CCC(=O)Nc3ccc(Cl)cc3F)ccc21 | 13.8 |
| Oc1ccc(N2CCN(C(c3ccccn3)c3nnnn3C3CCCC3)CC2)cc1 (centres unmarked) | -19.5 |
| COc1cc(OC)cc(C(=O)NCC(=O)Nc2ccc(OC)c(Cl)c2)c1 | 10.7 |
| Nc1nonc1C(=O)NCCNC(=O)c1ccc(Cl)cc1 | 4.7 |
| CCn1c(=O)c(-[n+]2ccccc2)c(O)c2ccccc21.[Cl-] | 16.3 |
| COc1cc2c(cc1OC)-c1cc(NC3CCCCC3)nc(=O)n1CC2 | -11.7 |
| O=C(Nc1cccc(C(F)(F)F)c1)C1CCN(S(=O)(=O)c2cnc[nH]2)CC1 | 13.1 |
| COc1ccc(CC(=O)OCN2C(=O)c3ccccc3C2=O)cc1OC | 19 |
| Fc1ccc(-c2csc(-c3ccccn3)n2)cc1F | 52 |
| COc1ccccc1N1CCN(C(CNS(=O)(=O)c2ccccc2)c2ccccc2)CC1 (centres unmarked) | 4.32 |
| CCN1CCN(C(C)C(=O)Nc2c(C)n(C)n(-c3ccccc3)c2=O)CC1.O=C(O)C(=O)O (centres unmarked) | 18.6 |
| CC(=O)c1cccc(NC(=O)/C(=C\c2cccnc2)NC(=O)c2ccccc2)c1 | 7.67 |
| C/C=C/CC#N | 2.03 |
| CCCCn1c(SCC(=O)c2ccc(OC)c(OC)c2)nc2cc(S(N)(=O)=O)ccc21 | 8.42 |
| Cc1ccc(CNc2ccc3c(c2)OCO3)c(C)c1 | -15.1 |
| O=C(Nc1cccc(F)c1)Nc1ccccn1 | 18.5 |
| Cn1nnnc1Sc1ncnc2scc(-c3cccc(F)c3)c12 | 4.33 |
| CCCCNc1cc(C)nc(N2CCOCC2)n1 | -44.4 |
| CCOc1ccc(-c2ncncc2-c2ccccc2OC)c(O)c1 | 3.17 |
| CC(C)CN1CCN=C1Nc1ccccc1 | 7.21 |
| COc1ccc2[nH]cc(C(O)CN3CCN(c4ccccc4F)CC3)c2c1 (centres unmarked) | -22 |

| SMILES | hERG current change (%, negative = inhibition) at 10uM [%] |
| --- | --- |
| Cc1ccc2c(c1)C1(C(=O)N2C)N2CC3(C)CN1CC(C)(C2)C3=O (centres unmarked) | 19 |
| Cl.Fc1ccc(C2=CSC3=NCCN23)cc1 | 15.4 |
| CCN(CC(=O)Nc1cc(Cl)ccc1C)C(=O)c1nc2nc(C)cc(C)n2n1 | 2.44 |
| COc1ccc(-c2ocnc2C(=O)Nc2ccccc2N2CCCCC2)cc1 | -7.96 |
| CCn1c(C)nc2cc(C(=O)NNC(=S)NC(=O)c3ccccc3)ccc21 | 28.2 |
| COc1cc(C2NC(=O)NC(C)=C2C(=O)OC2CCCCC2)cc(Br)c1O (centres unmarked) | -4.68 |
| CC(C)N1CC(O)=C(c2ccccc2)C1=N | -0.355 |
| CC(=O)O[C@@H]1/C=C/[C@](C)(O)C[C@@H](C)C/C=C/[C@H]2[C@H](O)[C@@](C)(O)[C@@H](C)[C@H]3[C@H](Cc4ccccc4)NC(=O)[C@@]312 | 20 |
| Cc1ccc(/C=C/C(=O)NCCc2ccccc2)o1 | 16.2 |
| COc1ccc(C2/C(=C(/O)c3ccc(C)cc3)C(=O)C(=O)N2c2ccccn2)cc1OC (centres unmarked) | 10.5 |
| O=C1c2ccccc2C(=O)N1Cc1nc2ccccc2c(=O)n1CCCN1CCOCC1 | -10.7 |
| Cc1csc(SC(C)C(=O)NCC2CCCCC2)n1 (centres unmarked) | 0.139 |
| COc1cc2c(cc1OC)-c1cc(N3CCCc4ccccc43)nc(=O)n1CC2 | -7.57 |
| COC(=O)c1cc(COC(=O)c2nc3nccc(C)n3n2)oc1C | 15.7 |
| Cn1c(=O)c2c(ncn2CC(=O)OCC(=O)Nc2ccc(F)cc2F)n(C)c1=O | -18.4 |
| COc1ccc(C(=O)NCc2ccc(C)cc2)cc1S(=O)(=O)N1CCCC1 | -9.74 |
| CCCNS(=O)(=O)c1ccc(CCC(=O)Nc2ccc3c(c2)OCO3)cc1 | 3.36 |
| CCn1cc(C(=O)NC(=S)Nc2cccc(O)c2)cn1 | 1.2 |
| COCCNC(=O)C(c1ccc(OC)cc1)N(Cc1ccco1)C(=O)CCC(=O)Nc1ccccn1 (centres unmarked) | 4.13 |
| Cc1cccc(OCCn2ccnc2)c1 | 12.7 |
